# Assay results published in PubChem BioAssay (Tox21).
# “And” between values parts separate entries of the source, which are not always exact repeats. Equal entries are not always repeated. Inconclusive results, whose numbers are uncertain, are shown with a selection of clear calls. Potencies beside an inconclusive call are fits to weak or partial responses and may not hold up. The source made the active and inactive calls. Calls follow the shape of the dose curve; as a rule, active = well fitted curve in the direction sought with a large enough effect in the repeat runs; inconclusive = weak or mixed curves; inactive = no such curve, though single readings can be large; an effect the other way counts as inactive or inconclusive.
# Target: Nuclear receptor subfamily 1 group I member 2 (Homo sapiens) (UniProt O75469)
# Assay: Human pregnane X receptor (PXR) activation by small molecules, qHTS assay (AID 1346985); also: nearly all actives have a fitted effect of over 40% in size
# Conditions: DPX-2 HepG2 CYP3A4-luciferase, 24 h; series mostly up to 38.3 µM; activation: at the top concentration
# How it was run: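 DPX-2 cells (HepG2 co-transfected with a PXR response element and a CYP3A4-promoter luciferase construct) were seeded at 2,000 per well, rested 5 hr at 37C, then exposed to DMSO-dissolved compounds for 24 hr. Activation was read as luciferase luminescence.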
# Potency is read from the fitted curve at half-maximal effect; tags tell the direction and shape of the fitted curve.
row,SMILES,Potency
1,O=C(C1CCCCC1)N1CC(=O)N2CCc3ccccc3C2C1 (centres undefined),"inconclusive: 7.94 µM [activator, partial curve]"
2,CCN1CC(CCN2CCOCC2)C(c2ccccc2)(c2ccccc2)C1=O (centres undefined),"inconclusive: 28.2 µM [activator, single point]"
3,COc1ccc2nc(NC(=O)Nc3ccccc3)sc2c1,"inconclusive: 25.1 µM [activator, partial curve, poor fit]"
4,COC(=O)[C@H]1[C@H]2C[C@@H]3c4[nH]c5cc(OC)ccc5c4CCN3C[C@H]2C[C@@H](OC(=O)COc2ccc(OC)cc2)[C@@H]1OC,active: 10 µM

# Target: Cytochrome P450 2D6 (Homo sapiens) (UniProt P10635)
# Chain of UniProt P10635 (P10635 whole entry, looked up): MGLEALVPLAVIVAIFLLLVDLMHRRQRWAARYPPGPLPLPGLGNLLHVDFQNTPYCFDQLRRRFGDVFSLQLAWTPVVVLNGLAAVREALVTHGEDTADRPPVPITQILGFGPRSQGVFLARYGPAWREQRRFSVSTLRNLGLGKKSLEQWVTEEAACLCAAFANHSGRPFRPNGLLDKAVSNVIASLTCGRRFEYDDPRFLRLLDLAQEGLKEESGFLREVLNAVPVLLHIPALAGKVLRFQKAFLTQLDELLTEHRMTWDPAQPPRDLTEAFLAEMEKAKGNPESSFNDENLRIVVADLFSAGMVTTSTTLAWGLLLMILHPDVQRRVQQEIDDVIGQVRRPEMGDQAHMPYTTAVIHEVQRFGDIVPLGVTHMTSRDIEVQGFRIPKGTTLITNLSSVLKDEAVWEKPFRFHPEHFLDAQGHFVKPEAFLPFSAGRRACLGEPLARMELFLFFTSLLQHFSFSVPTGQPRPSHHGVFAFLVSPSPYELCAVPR
# Assay: Cytochrome P450 Family 2 Subfamily D Member 6 (CYP2D6) small molecule antagonists: luciferase reporter qHTS assay (AID 1671196); also: nearly all actives have a fitted effect of over 50% in size; as to activity change, negative = inhibition: % is scaled to controls: 0 for no effect and ±100 for the full control effect
# Conditions: P450-Glo CYP2D6 enzyme assay, luciferin luminescence, 1 h; series mostly up to 115 µM; activity change, negative = inhibition: at the top concentration
# How it was run: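 P450-Glo format: CYP2D6 converts a proluciferin substrate to luciferin in an NADPH-driven reaction lasting 1 h at room temperature. Light output, proportional to CYP2D6 activity, reflects interference by test chemicals.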
SMILES,Potency,"activity change, negative = inhibition"
CCC(C(=O)O)c1ccc(N2Cc3ccccc3C2=O)cc1 (centres undefined),active: 15.5 µM,
O=C(C1CCCCC1)N1CC(=O)N2CCc3ccccc3C2C1 (centres undefined),"inconclusive: 31.7 µM [inhibitor, partial curve] and inconclusive: 24.5 µM [inhibitor, partial curve]",
[O-][N+](=Nc1ccccc1)c1ccccc1,"inconclusive: 63.3 µM [inhibitor, partial curve]",
CCN(CC)c1ccc(N=Nc2ccccc2)cc1,"inconclusive: 31.7 µM [inhibitor, partial curve]",
CC(=O)CC(=O)c1ccccc1,"inconclusive: 35.8 µM [inhibitor, partial curve, poor fit]",
Fc1ccccc1-c1ccccc1,,inactive: -4.23%
Nc1ccc(F)c([N+](=O)[O-])c1,,inactive: -1.46%
CCN(Cc1cccc(S(=O)(=O)O)c1)c1ccc(C(=C2C=CC(=[N+](CC)Cc3cccc(S(=O)(=O)[O-])c3)C=C2)c2ccccc2)cc1,"inconclusive: 49.9 µM [inhibitor, partial curve]",
CCCS(=O)c1ccc2nc(NC(=O)OC)[nH]c2c1 (centres undefined),"inconclusive: 17.4 µM [inhibitor, partial curve]",
CC(C)(C)[C@@H](O)[C@@H](Cc1ccc(Cl)cc1)n1cncn1,"inconclusive: 35.3 µM [inhibitor, partial curve]",
